# According to PMC9911399, “Two distinct binding modes provide the RNA-binding protein RbFox with extraordinary sequence specificity”:
# Residue numbers refer to the chain shown, from its start. This is one part of the list.
# T1: RBFOX1 RRM RbFoxmut (Fox-RRM*) (Homo sapiens, UniProt Q9NWB1 109-208, R118D;E147R;N151S;E152T)
# T1 sequence: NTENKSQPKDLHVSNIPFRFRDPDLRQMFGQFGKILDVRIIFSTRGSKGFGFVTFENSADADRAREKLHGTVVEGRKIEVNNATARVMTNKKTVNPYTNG
# B1: GGCACGG (DNA:RNA)
# RNA: GGGAGACCGGAAUUCAGAUUGUCCGGCACGGUUAAAUCCCGUCGUAGCCACCA
# DNA 1: CAATCTGAATTCCGGTCTCCC
# DNA 2: TGGTGGCTACGACGGGATT
# B2: GGUAAUG (DNA:RNA)
# RNA: B1 RNA with C27U, C29A, G30U
# DNA 1: CAATCTGAATTCCGGTCTCCC
# DNA 2: TGGTGGCTACGACGGGATT
# B3: UCACCAU (DNA:RNA)
# RNA: B1 RNA with G25U, G26C, C27A, A28C, G30A, G31U
# DNA 1: CAATCTGAATTCCGGTCTCCC
# DNA 2: TGGTGGCTACGACGGGATT
# B4: GGGGCAA (DNA:RNA)
# RNA: B1 RNA with C27G, A28G, G30A, G31A
# DNA 1: CAATCTGAATTCCGGTCTCCC
# DNA 2: TGGTGGCTACGACGGGATT
# B5: GUCCCGU (DNA:RNA)
# RNA: B1 RNA with G26U, A28C, G31U
# DNA 1: CAATCTGAATTCCGGTCTCCC
# DNA 2: TGGTGGCTACGACGGGATT
# B6: GAAUGGC (DNA:RNA)
# RNA: B1 RNA with G26A, C27A, A28U, C29G, G31C
# DNA 1: CAATCTGAATTCCGGTCTCCC
# DNA 2: TGGTGGCTACGACGGGATT
# B7: CUUCUGU (DNA:RNA)
# RNA: B1 RNA with G25C, G26U, C27U, A28C, C29U, G31U
# DNA 1: CAATCTGAATTCCGGTCTCCC
# DNA 2: TGGTGGCTACGACGGGATT
# B8: CCUGUUC (DNA:RNA)
# RNA: GGGAGACCGGAAUUCAGAUUGUCCCCUGUUCUUAAAUCCCGUCGUAGCCACCA
# DNA 1: CAATCTGAATTCCGGTCTCCC
# DNA 2: TGGTGGCTACGACGGGATT
# B9: GGUGGGG (DNA:RNA)
# RNA: B1 RNA with C27U, A28G, C29G
# DNA 1: CAATCTGAATTCCGGTCTCCC
# DNA 2: TGGTGGCTACGACGGGATT
# B10: CGUAAAC (DNA:RNA)
# RNA: B8 RNA with C26G, G28A, U29A, U30A
# DNA 1: CAATCTGAATTCCGGTCTCCC
# DNA 2: TGGTGGCTACGACGGGATT
# B11: AUUUGCC (DNA:RNA)
# RNA: B8 RNA with C25A, C26U, G28U, U29G, U30C
# DNA 1: CAATCTGAATTCCGGTCTCCC
# DNA 2: TGGTGGCTACGACGGGATT
# B12: GCAGGGU (DNA:RNA)
# RNA: B8 RNA with C25G, U27A, U29G, U30G, C31U
# DNA 1: CAATCTGAATTCCGGTCTCCC
# DNA 2: TGGTGGCTACGACGGGATT
# B13: CCUUAGA (DNA:RNA)
# RNA: B8 RNA with G28U, U29A, U30G, C31A
# DNA 1: CAATCTGAATTCCGGTCTCCC
# DNA 2: TGGTGGCTACGACGGGATT
# B14: GAUAGCA (DNA:RNA)
# RNA: B1 RNA with G26A, C27U, C29G, G30C, G31A
# DNA 1: CAATCTGAATTCCGGTCTCCC
# DNA 2: TGGTGGCTACGACGGGATT
# B15: CUUAGAU (DNA:RNA)
# RNA: B8 RNA with C26U, G28A, U29G, U30A, C31U
# DNA 1: CAATCTGAATTCCGGTCTCCC
# DNA 2: TGGTGGCTACGACGGGATT
# B16: CAUAGAA (DNA:RNA)
# RNA: B8 RNA with C26A, G28A, U29G, U30A, C31A
# DNA 1: CAATCTGAATTCCGGTCTCCC
# DNA 2: TGGTGGCTACGACGGGATT
# B17: UGGUUCU (DNA:RNA)
# RNA: B8 RNA with C25U, C26G, U27G, G28U, U30C, C31U
# DNA 1: CAATCTGAATTCCGGTCTCCC
# DNA 2: TGGTGGCTACGACGGGATT
# B18: AAUCUGG (DNA:RNA)
# RNA: B8 RNA with C25A, C26A, G28C, U30G, C31G
# DNA 1: CAATCTGAATTCCGGTCTCCC
# DNA 2: TGGTGGCTACGACGGGATT
# B19: GGUGCCG (DNA:RNA)
# RNA: B1 RNA with C27U, A28G, G30C
# DNA 1: CAATCTGAATTCCGGTCTCCC
# DNA 2: TGGTGGCTACGACGGGATT
# B20: CGAUGAC (DNA:RNA)
# RNA: B8 RNA with C26G, U27A, G28U, U29G, U30A
# DNA 1: CAATCTGAATTCCGGTCTCCC
# DNA 2: TGGTGGCTACGACGGGATT
# B21: CUGGUUA (DNA:RNA)
# RNA: B8 RNA with C26U, U27G, C31A
# DNA 1: CAATCTGAATTCCGGTCTCCC
# DNA 2: TGGTGGCTACGACGGGATT
# B22: UACCAGA (DNA:RNA)
# RNA: B1 RNA with G25U, G26A, A28C, C29A, G31A
# DNA 1: CAATCTGAATTCCGGTCTCCC
# DNA 2: TGGTGGCTACGACGGGATT
# B23: UUCCGUU (DNA:RNA)
# RNA: B8 RNA with C25U, C26U, U27C, G28C, U29G, C31U
# DNA 1: CAATCTGAATTCCGGTCTCCC
# DNA 2: TGGTGGCTACGACGGGATT
# B24: CCGCUCG (DNA:RNA)
# RNA: B8 RNA with U27G, G28C, U30C, C31G
# DNA 1: CAATCTGAATTCCGGTCTCCC
# DNA 2: TGGTGGCTACGACGGGATT
# B25: GUCAUUA (DNA:RNA)
# RNA: B1 RNA with G26U, C29U, G30U, G31A
# DNA 1: CAATCTGAATTCCGGTCTCCC
# DNA 2: TGGTGGCTACGACGGGATT
# B26: CUUAAAU (DNA:RNA)
# RNA: B8 RNA with C26U, G28A, U29A, U30A, C31U
# DNA 1: CAATCTGAATTCCGGTCTCCC
# DNA 2: TGGTGGCTACGACGGGATT
# B27: UGUUAUG (DNA:RNA)
# RNA: B8 RNA with C25U, C26G, G28U, U29A, C31G
# DNA 1: CAATCTGAATTCCGGTCTCCC
# DNA 2: TGGTGGCTACGACGGGATT
# B28: GGCGCUC (DNA:RNA)
# RNA: B1 RNA with A28G, G30U, G31C
# DNA 1: CAATCTGAATTCCGGTCTCCC
# DNA 2: TGGTGGCTACGACGGGATT
# B29: AAAAGCU (DNA:RNA)
# RNA: B1 RNA with G25A, G26A, C27A, C29G, G30C, G31U
# DNA 1: CAATCTGAATTCCGGTCTCCC
# DNA 2: TGGTGGCTACGACGGGATT
# B30: CUCGACA (DNA:RNA)
# RNA: B8 RNA with C26U, U27C, U29A, U30C, C31A
# DNA 1: CAATCTGAATTCCGGTCTCCC
# DNA 2: TGGTGGCTACGACGGGATT
# B31: CUCCCAU (DNA:RNA)
# RNA: B1 RNA with G25C, G26U, A28C, G30A, G31U
# DNA 1: CAATCTGAATTCCGGTCTCCC
# DNA 2: TGGTGGCTACGACGGGATT
# Target: T1, RBFOX1 RRM RbFoxmut (Fox-RRM*)
# Test: EMSA; HiTS-Eq, 1 nM pool, 10 min; buffer printed only for the single-RNA assays: 10 mM Tris pH 7.5, 150 mM NaCl, 3.4 mM EDTA, 0.001% NP-40, 30 C
# Details: tags: His6 N-terminal (pET28a); label: 5' 32P
# Procedure, shortened: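 These values rest on relative association constants, computed from read-count changes of each RNA species versus the control reaction and normalised to the cognate motif. Reads came from free RNA recovered by 8% native PAGE after purified RbFox RRM (wild type or mutant) at increasing concentrations was equilibrated for 10 min in 50 µL with 1 nM of a 5′-radiolabelled pool with 7 randomized nucleotides and DNA-annealed flanks.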
row,Binder,binding signal
1,B1,0.149 KA relative to UGCAUGU
2,B2,0.321 KA relative to UGCAUGU
3,B3,0.0886 KA relative to UGCAUGU
4,B4,0.0741 KA relative to UGCAUGU
5,B5,0.11 KA relative to UGCAUGU
6,B6,0.592 KA relative to UGCAUGU
7,B7,0.0941 KA relative to UGCAUGU
8,B8,0.0785 KA relative to UGCAUGU
9,B9,0.0688 KA relative to UGCAUGU
10,B10,0.0996 KA relative to UGCAUGU
11,B11,0.257 KA relative to UGCAUGU
12,B12,0.106 KA relative to UGCAUGU
13,B13,0.102 KA relative to UGCAUGU
14,B14,0.106 KA relative to UGCAUGU
15,B15,0.0658 KA relative to UGCAUGU
16,B16,0.102 KA relative to UGCAUGU

row,Binder,binding signal
1,B17,0.147 KA relative to UGCAUGU
2,B18,0.0668 KA relative to UGCAUGU
3,B19,0.128 KA relative to UGCAUGU
4,B20,0.141 KA relative to UGCAUGU
5,B21,0.128 KA relative to UGCAUGU
6,B22,0.0673 KA relative to UGCAUGU
7,B23,0.0756 KA relative to UGCAUGU
8,B24,0.109 KA relative to UGCAUGU
9,B25,0.126 KA relative to UGCAUGU
10,B26,0.0627 KA relative to UGCAUGU
11,B27,1.04 KA relative to UGCAUGU
12,B28,0.0533 KA relative to UGCAUGU
13,B29,0.0733 KA relative to UGCAUGU
14,B30,0.056 KA relative to UGCAUGU
15,B31,0.0551 KA relative to UGCAUGU
